The text below walks through data of the RNAGym collection of RNA variant scans (doi:10.1073/pnas.2313332121).

Sequences and labels used below:
B1: TPR 5TU (parent)
chain: GGAUCUUCUCGAUCUAACAAAAAAGACAAAUCUGCCACAAAGCUUGAGAGCAUCUUCGGAUGCAGAGGCGGCAGCCUUCGGUGGCGCGAUAGCGCCAACGUUCUCAACUAUGACACGCAAAACGCGUGCUCCGUUGAAUGGAGUUUAUCAUG

Variants at the background level are over-represented here.

Variants of B1 are the subject of the data set. The experiment in a line: polymerase ribozyme fitness, log enrichment relative to wild type (log ratio); higher = more active; in vitro selection for triplet polymerase activity. The method in brief: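 Fitness compares each genotype's enrichment to that of the wild type on a logarithmic scale, averaging replicates with inverse-variance weights. The logarithm is base 2. Enrichment came from Illumina sequencing of input and output libraries after one triplicate round of in vitro selection, which included frozen incubation at −7 °C, of PCR-built, transcribed mutant libraries of each subunit of a heterodimeric triplet polymerase ribozyme. Only genotypes with ≥10 input reads and ≥1 read per output were kept.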
With C14A A19G C57A G68C G92U C103G A119C U127A A138G, the “polymerase ribozyme fitness (log ratio)” value is at most -4.2.

Consider C14U A40G U56A G59C C76U A121U, for which the “polymerase ribozyme fitness (log ratio)” value is -4.02. The result for C14A A64U C93U G141A reads at most -4.2. Regarding C14U A24C U53A G67U C108U A150G, the “polymerase ribozyme fitness (log ratio)” value is at most -4.2. In the case of C14U U15A C32U C38U U56A G58A C69A C76A A98U U151C it was at most -4.2; in that of C14A G59A G84A A106G C125G U148C C149U, at most -4.2; in that of C14U A30G G48A C76G A98U U102G C118G, at most -4.2. Consider C14A A17G A23C G81C G83U C87A A97G U134C, for which the “polymerase ribozyme fitness (log ratio)” value was at most -4.2.

In the case of C14G C85A U104G A113C A120U, the “polymerase ribozyme fitness (log ratio)” value is at most -4.2. As for C14G C27U G48A C57A A60U G88C A106U, the “polymerase ribozyme fitness (log ratio)” value was at most -4.2. Turning to C14U A39U G84U A91U C123A, the “polymerase ribozyme fitness (log ratio)” value is at most -4.2.

Consider C14A A39C A73C G94A C99G C116U A121C, for which the “polymerase ribozyme fitness (log ratio)” value was at most -4.2. The result for U13G G42A G50U C76A G86C C132A reads at most -4.2; that for C14A C36U A41G U53A C87A G126A, at most -4.2. The result for C14A A47C C85G G124U reads at most -4.2. Take C14G G46U A52C C96U U104G U109G G112U U135G U144A: the “polymerase ribozyme fitness (log ratio)” value is at most -4.2. The result for C14G C57A G92A C96U A107C G124U reads at most -4.2. The result for C14G U148A reads -4.14. The result for C14U A91U G128C U130G U145A reads at most -4.2; that for C14G A41C C57G A60G C76G U101C, at most -4.2; that for C14G U56G C75U C99G U139C, at most -4.2.

As for C14G A20C G94A A110U C114U, the “polymerase ribozyme fitness (log ratio)” value is at most -4.2. The result for U13G A91U C95U A107G G133A reads at most -4.2; that for U15A A19U G92C C125U A138C, at most -4.2; that for C14U A24U C35U U61C G83C C123G, at most -4.2. In the case of U15C A19C A91U it was -3.68. In the case of U13G C18G A37G C57A G58A U61A G83A C87U A97C A115G it was at most -4.2; in that of C14G A29G U77G A91C C95G U102G C116U A119G G141C, at most -4.2. As for C14G A30U A41C C43U G50C U55G C75G C118U A119C, the “polymerase ribozyme fitness (log ratio)” value was at most -4.2. The result for C14G A49G C57G C108U U109C C132U G133U reads at most -4.2; that for C14A C43A A52G U82A C85G C114U C123A G141A A142U, at most -4.2. With C14G U55A U56C A91U, the “polymerase ribozyme fitness (log ratio)” value is at most -4.2. For the variant C14G A52G C87G, the “polymerase ribozyme fitness (log ratio)” value was at most -4.2. In the case of C14G U77G A97U U111C it was -4.01. Take C14U C93A: the “polymerase ribozyme fitness (log ratio)” value was -3.4. With C14A A17C C36A U44A U45A C54A C85G G88U C103G A110C, the “polymerase ribozyme fitness (log ratio)” value was at most -4.2. As to U13G A40U A60C, the “polymerase ribozyme fitness (log ratio)” value is at most -4.2. As to C14G A20U C76A, the “polymerase ribozyme fitness (log ratio)” value is -3.92. The result for C14U U56A C63U A66C G126U reads at most -4.2; that for U13G G94C C114G G143A, at most -4.2; that for U13G C36A C85U A115U U139C, at most -4.2. In the case of C14U U31A G83A A91C G117A it was at most -4.2. Turning to C14G A41C G88U A107C, the “polymerase ribozyme fitness (log ratio)” value was at most -4.2. In the case of C14G A41G C54G C57U G92A U148A, the “polymerase ribozyme fitness (log ratio)” value is at most -4.2.

Regarding U13G G58C G62U U82A G86U U127C U146G, the “polymerase ribozyme fitness (log ratio)” value is at most -4.2. Take C14U C85A C103G C114A: the “polymerase ribozyme fitness (log ratio)” value was at most -4.2. As to C14G G71C C96G A119U G143A, the “polymerase ribozyme fitness (log ratio)” value is at most -4.2. In the case of C14A A41C C76U G84U it was -2.89.

For C14A C54U G83U C95U U111G U134G, the “polymerase ribozyme fitness (log ratio)” value is at most -4.2.

For C14G A16G A49U C87A A115C, the “polymerase ribozyme fitness (log ratio)” value is at most -4.2. Turning to C14U A49C A91C, the “polymerase ribozyme fitness (log ratio)” value is at most -4.2. For the variant C14G A19U C87G U145A, the “polymerase ribozyme fitness (log ratio)” value was at most -4.2. Take U13G U33A C54U G83A C103G C125A: the “polymerase ribozyme fitness (log ratio)” value was at most -4.2. As for U13G C27G U44A A106U C125U, the “polymerase ribozyme fitness (log ratio)” value is at most -4.2. C14U A122G: the “polymerase ribozyme fitness (log ratio)” value is -1.71. In the case of U13G A40U A49C G65U C103G G117U U145G it was at most -4.2; in that of C14U A17U A28C G83A A107G G133U, at most -4.2. Turning to C14G C36U G42A C63A G86U A119C A142U, the “polymerase ribozyme fitness (log ratio)” value is at most -4.2. In the case of U15C A21C U56C G83A it was -0.11; in that of U13G U53G C114U A122U C149U, at most -4.2; in that of C14U A47C G84A, -2.49. Take C14U C87G A97U G100C: the “polymerase ribozyme fitness (log ratio)” value is at most -4.2. The result for C14U U45A A91U U127G reads at most -4.2; that for U13G A39U G65U G94A C114G C123U U135C G136C, at most -4.2; that for U15A A52C G65A G117A G133U, at most -4.2. The result for C14G G50U A73U G86A U144C reads at most -4.2; that for C14U A19U A26U U61G C93U U134A U139A, at most -4.2; that for C14G U56A A60U G88U C93G, at most -4.2.

Turning to C14U A23G A24C G70A C85G A89U, the “polymerase ribozyme fitness (log ratio)” value was at most -4.2. The result for C14G A24U C75U U78A C87G reads at most -4.2; that for C14G G92U, -2.61. In the case of U15C A28C A39G G65U U82C U130A it was at most -4.2. The result for U15A C54A A91U A150C reads at most -4.2.

As for C14G U31G, the “polymerase ribozyme fitness (log ratio)” value is -2.12. In the case of C14U G86A C103G it was at most -4.2; in that of C14A A49C C85A U90G G94U A107G G141U, at most -4.2; in that of C14G A16C G70A C108A A113U A120U G143A, at most -4.2. As for C14G C36G C87U A113C U148C, the “polymerase ribozyme fitness (log ratio)” value was at most -4.2. The result for C14G G50C A66G C85G A106G reads at most -4.2. The result for C14G C38U C51A C57U G112U U144G reads at most -4.2; that for C14G A17G C32U G81A G83C, at most -4.2.

For C14U A52C G83C G100A U139C, the “polymerase ribozyme fitness (log ratio)” value is at most -4.2. Take C14A C95U: the “polymerase ribozyme fitness (log ratio)” value is -1.38. In the case of C14A A89C A91C A142G, the “polymerase ribozyme fitness (log ratio)” value was at most -4.2.
